Measurements taken from PubChem BioAssay AID1347165 (National Center for Advancing Translational Sciences (NCATS), 2019).
The campaign covered roughly 220,000 compounds. About 5,700 (2.6%) were called active. The inconclusive results got no clear call from the source; some entries with a clear call stand among them for comparison. The call rests on the fitted dose curve; in most records, active means well fitted inhibition curve with a large enough effect; inconclusive means small, poorly fitted or top-dose-only effect; inactive means no such curve, though single readings can be large or run the other way. Potencies beside an inconclusive call are fits to weak or partial responses and may not hold up.

What follows are compounds tested against Lysine-specific demethylase 5B (Homo sapiens) (UniProt Q9UGL1) (assay: Primary screen for KDM5B Histone Demethylases FDH-coupled qHTS). Settings: FDH-coupled NADH fluorescence (FDH is formaldehyde dehydrogenase); activity change, negative = inhibition: at 57.7 µM (top of the series) unless noted.
UniProt Q9UGL1, sequence (Q9UGL1 whole entry, looked up): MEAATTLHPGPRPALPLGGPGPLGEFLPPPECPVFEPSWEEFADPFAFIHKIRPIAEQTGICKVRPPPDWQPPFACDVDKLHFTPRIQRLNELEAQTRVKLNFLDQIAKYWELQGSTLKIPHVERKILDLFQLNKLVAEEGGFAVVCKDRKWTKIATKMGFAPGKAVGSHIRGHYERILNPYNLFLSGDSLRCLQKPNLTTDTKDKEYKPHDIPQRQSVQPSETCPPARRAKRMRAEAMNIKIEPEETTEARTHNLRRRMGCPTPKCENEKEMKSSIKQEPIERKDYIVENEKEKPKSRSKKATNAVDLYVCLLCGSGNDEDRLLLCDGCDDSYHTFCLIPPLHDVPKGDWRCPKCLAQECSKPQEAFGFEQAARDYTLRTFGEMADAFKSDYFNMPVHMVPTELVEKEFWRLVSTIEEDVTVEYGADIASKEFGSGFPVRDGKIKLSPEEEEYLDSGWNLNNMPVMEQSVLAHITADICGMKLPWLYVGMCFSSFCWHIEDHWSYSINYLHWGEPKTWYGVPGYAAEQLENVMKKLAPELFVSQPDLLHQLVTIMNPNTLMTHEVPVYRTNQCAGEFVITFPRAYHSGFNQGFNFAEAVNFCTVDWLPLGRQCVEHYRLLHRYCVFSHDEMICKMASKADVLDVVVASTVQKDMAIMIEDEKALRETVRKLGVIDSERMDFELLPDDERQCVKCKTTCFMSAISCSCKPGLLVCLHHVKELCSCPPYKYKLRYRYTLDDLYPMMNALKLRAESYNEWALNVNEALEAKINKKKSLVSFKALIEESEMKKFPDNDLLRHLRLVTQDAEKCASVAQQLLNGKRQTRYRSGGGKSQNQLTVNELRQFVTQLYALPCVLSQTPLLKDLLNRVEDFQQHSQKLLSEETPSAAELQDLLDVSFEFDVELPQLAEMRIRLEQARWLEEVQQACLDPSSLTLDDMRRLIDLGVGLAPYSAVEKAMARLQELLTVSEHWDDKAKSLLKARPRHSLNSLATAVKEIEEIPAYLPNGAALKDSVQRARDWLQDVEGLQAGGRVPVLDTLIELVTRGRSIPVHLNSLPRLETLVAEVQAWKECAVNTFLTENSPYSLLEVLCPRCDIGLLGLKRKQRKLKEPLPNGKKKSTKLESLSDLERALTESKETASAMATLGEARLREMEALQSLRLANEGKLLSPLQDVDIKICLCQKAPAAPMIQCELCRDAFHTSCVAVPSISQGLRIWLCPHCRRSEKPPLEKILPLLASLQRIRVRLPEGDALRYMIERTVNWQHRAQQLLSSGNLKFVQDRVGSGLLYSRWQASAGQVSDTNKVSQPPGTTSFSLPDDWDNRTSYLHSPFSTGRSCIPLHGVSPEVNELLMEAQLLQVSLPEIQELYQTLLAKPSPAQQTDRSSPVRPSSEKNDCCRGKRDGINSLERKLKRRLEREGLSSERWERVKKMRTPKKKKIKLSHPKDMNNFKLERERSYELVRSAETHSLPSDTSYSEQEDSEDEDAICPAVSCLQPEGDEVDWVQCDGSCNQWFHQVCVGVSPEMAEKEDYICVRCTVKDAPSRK
In short: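 KDM5BΔAP (200 nM final) in 50 mM HEPES pH 7.5, 0.01% Tween-20 was preincubated 10 min at RT with compound over a concentration range. Substrate mix (H3K4me3 12.5 µM, α-KG 25 µM, Fe²⁺, ascorbate, NAD⁺, FDH) was added, and NADH fluorescence change over 30 min gave dose-response curves.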
Further: nearly all actives have a fitted effect of over 70% in size.
Potency means the concentration at half of the fitted maximal effect; tags describe the fitted curve by direction and shape.
Wherever activity change, negative = inhibition is given: 0% is about no effect.

Row | Structure (SMILES) | Potency | activity change, negative = inhibition
1 | CCC1(N2CCN(C(=O)Nc3ccc(Cl)cc3C)CC2)CCN(C(=O)NC)C1 (centres undefined) | inconclusive: 28.2 µM [inhibitor, partial curve] | 
2 | COc1ccc(OCc2nc(C#N)c(NCc3ccco3)o2)cc1 |  | inactive: -11.6%
3 | N=c1ccn(O)c2ccccc12 | inconclusive: 28.2 µM [inhibitor, partial curve, poor fit] | 
4 | O=C(c1ccoc1)N1CCC2(CCCN(Cc3ccc(F)c(F)c3)C2)C1 (centres undefined) |  | inactive: 12.5%
5 | COC(=O)c1cc(-c2cccc(C)c2)nc2ccccc12 | inconclusive: 39.8 µM [inhibitor, single point] | 
6 | Cc1ccc(C)c(NC(=O)Cn2c(=O)n(Cc3ccco3)c(=O)c3oc4ccccc4c32)c1 | inconclusive: 8.91 µM [inhibitor, partial curve, poor fit] | 
7 | C/C=C/Cn1c(SCC(=O)OCC)nc2c1c(=O)[nH]c(=O)n2C |  | inactive: 3.33%
8 | Cc1ccc(CN2C(=O)C(O)(c3c[nH]c4ccccc34)c3cc(Cl)ccc32)cc1 (centres undefined) | inconclusive: 1.78 µM [inhibitor, partial curve, poor fit] | 
9 | CC(CN1CCN(Cc2ccccc2)CC1)OC(=O)c1ccco1 (centres undefined) |  | inconclusive: -31.4% [inhibitor]
10 | COc1ccc(C2c3c(-c4c(C)cc(C)cc4O)n[nH]c3C(=O)N2Cc2ccco2)cc1 (centres undefined) | inconclusive: 7.08 µM [inhibitor, partial curve, poor fit] | 
11 | CCOC(=O)c1c(NC(=O)c2ccccc2Cl)sc2c1CCCC2 | inconclusive: 35.5 µM [inhibitor, partial curve, poor fit] | 
12 | O=C(COc1ccc(Cl)cc1Br)OCC(=O)c1ccc(-c2ccccc2)cc1 |  | inactive: 10.1%
13 | COc1ccc(NC(=O)Cc2c[nH]c3ncc(-c4ccccc4)cc23)cc1OC |  | inactive: -6.42% [at 86.2 µM]
14 | CCN(CC)C(=O)CC[C@@H]1CNC(=O)[C@@H]2C[C@H](NCc3cccc(Cl)c3)CN12 | inconclusive: 31.6 µM [inhibitor, single point] | 
15 | C[S+](=O)([O-])CCn1ncc2cc(OCc3cccc(-c4ccc(F)cc4)c3)ccc21 | active: 35.5 µM | 
16 | Cc1ccc(Cl)cc1N1CCN(C(=O)CCC(=O)Nc2ccc3nc(N4CCC(C)CC4)cc(C)c3c2)CC1 | inconclusive: 5.01 µM [inhibitor, partial curve, poor fit] | 
17 | CCOCCCNC(=O)N1CCC(Cc2nc(-c3ccncc3)n[nH]2)CC1 | active: 31.6 µM | 
18 | CSc1ccccc1C(=O)Nc1c(C)cc(C)cc1Cl |  | inactive: 9.94%
19 | O=C(Nc1ccc(Br)cc1F)N1Cc2cccn2-c2ccccc21 | inconclusive: 39.8 µM [inhibitor, single point] | 
20 | Cc1cccc(C)c1NC(=O)Cn1c(=O)n(CC2CCC(C(=O)NCCc3ccccc3)CC2)c(=O)c2ccccc21 (centres undefined) | inconclusive: 1.41 µM [inhibitor, partial curve, poor fit] | 
21 | Cc1oc2cc(OC(=O)c3cccs3)ccc2c(=O)c1-c1ccccc1 |  | inactive: 5.7%
22 | Cc1ccc(-c2nc(CSc3nnc(NC(C)(C)C)s3)co2)cc1 |  | inactive: 14.3%
23 | CCc1ccc(NC(=O)C2CCN(S(=O)(=O)c3ccc4[nH]c5c(c4c3)CCCCC5)CC2)cc1 | inconclusive: 22.4 µM [inhibitor, partial curve, poor fit] | 

Row | Structure (SMILES) | Potency | activity change, negative = inhibition
24 | CCN(CC)C(=S)SCC(=O)NC(=O)NC1CCCCC1 |  | inactive: -13.7%
25 | O=C1CC(c2ccccc2)N(C(=O)CC2CCCC2)CCCCCN1 (centres undefined) |  | inactive: -20%
26 | COc1ccc(-c2ccc3c(N)c(C(=O)NCc4ccc(Cl)cc4)sc3n2)cc1 | inconclusive: 28.2 µM [inhibitor, partial curve, poor fit] | 
27 | Fc1cc(F)cc(Cc2nc3nccc(-c4ccncc4)n3n2)c1 |  | inactive: -10.9%
28 | COc1ccc(-c2cc3ccc(O)c(CN4CCOCC4)c3oc2=O)cc1 | inconclusive: 28.2 µM [inhibitor, partial curve, poor fit] | 
29 | COc1ccccc1-c1ccc(C(=O)N2C[C@@H](N(C)C)[C@H](C(C)C)C2)cc1 | active: 28.2 µM | 
30 | Cc1cccc(NC(=O)c2nc(S(C)(=O)=O)ncc2Cl)c1 | inconclusive: 14.1 µM [inhibitor, partial curve, poor fit] | 
31 | O=C1NC(C(=O)N2CCN(Cc3ccc4c(c3)OCO4)CC2)Cn2cccc21 (centres undefined) | inconclusive: 22.4 µM [inhibitor, single point] | 
32 | Cc1ccc2cc(CCC(=O)NCc3cccs3)c(=O)[nH]c2c1 | inconclusive: 35.5 µM [inhibitor, single point] | 
33 | Cc1nc(N2CCC(NC(=O)Cc3ccccc3Cl)CC2)cc(C(F)(F)F)n1 | inconclusive: 35.5 µM [inhibitor, partial curve, poor fit] | 
34 | CC(=O)/C(C#N)=C1\NC(=O)C(Cc2ccc(F)cc2)S1 (centres undefined) | inconclusive: 39.8 µM [inhibitor, single point] | 
35 | CC(C)CCNC(=O)CCCN1C(=O)C(c2ccccc2)Oc2cccnc21 (centres undefined) | inconclusive: 31.6 µM [inhibitor, partial curve, poor fit] | 
36 | Cc1ccc(C(=O)NC(Nc2ccccc2Cl)C(=O)c2ccccc2)cc1 (centres undefined) |  | inactive: -21.8%
37 | COc1ccc2c(c1)C(C[C@H]1CN(C(=O)C3CCC3)CC[C@H]1CC(=O)O)=NCC2 | active: 35.5 µM | 
38 | O=C(N/N=C/c1ccccn1)c1cc(-c2ccc(Br)cc2)nc2ccccc12 | inconclusive: 31.6 µM [inhibitor, single point] | 
39 | O=C1N(Cc2ccccc2F)CCOC12CCN(Cc1ccccc1)CC2 | inconclusive: 28.2 µM [inhibitor, partial curve, poor fit] | 
40 | CS(=O)(=O)Nc1ccccc1C(=O)N1CCN(C(c2ccccc2)c2ccccc2)CC1 |  | inactive: -7.03%
41 | COc1cccc(NC(=O)[C@@H]2C[C@H](c3ccc(F)cc3)N(Cc3csc(C)n3)C2)c1 | inconclusive: 35.5 µM [inhibitor, partial curve, poor fit] | 
42 | Cc1noc(C2CC3(CCN(C(=O)CCc4c(C)nn(C)c4C)CC3)CN2C)n1 (centres undefined) | inconclusive: 39.8 µM [inhibitor, single point] | 
43 | Oc1ccc(Cl)cc1C=NCc1ccccc1C(F)(F)F | inconclusive: 28.2 µM [inhibitor, partial curve, poor fit] | 
44 | Cc1ccc(CN2CCSc3ccc(C(=O)N4CCN(c5cc(C)ccc5C)CC4)cc32)cc1 | inconclusive: 15.8 µM [inhibitor, partial curve, poor fit] | 
45 | Cc1c(O)ccc2c(CN3CCN(CCc4ccccn4)CC3)cc(=O)oc12 | inconclusive: 4.47 µM [inhibitor, full curve, poor fit] | 
46 | COc1cc(NC(=O)c2c(-n3cnnn3)sc(C)c2C)cc(OC)c1 |  | inactive: 16.5%

Row | Structure (SMILES) | Potency | activity change, negative = inhibition
47 | CCC1CCCCN1C(=O)c1ccccc1Br (centres undefined) |  | inactive: -5.44%
48 | Cc1ccc(-c2nnc(C(C)Sc3nnc4ccccn34)o2)cc1 (centres undefined) |  | inactive: 8.9%
49 | O=C(N/N=C/c1ccc[nH]1)c1cc2ccccc2cc1O | inconclusive: 39.8 µM [inhibitor, single point] | 
50 | CCOC(=O)c1cnc(Nc2ccccc2F)c2ccccc12 | inconclusive: 22.4 µM [inhibitor, single point] | 
51 | Cc1ccc(Cc2c(C)c(C#N)c3[nH]c4ccccc4n3c2=O)cc1 | inconclusive: 8.91 µM [inhibitor, partial curve, poor fit] | 
52 | Cc1noc(-c2cccs2)c1C(=O)NC(C)CCc1ccccc1 (centres undefined) | active: 28.2 µM | 
53 | CN(C(=O)/C(C#N)=C\c1ccc(OC(F)F)cc1)C1CCCCC1 | inconclusive: 31.6 µM [inhibitor, single point] | 
54 | COc1ccccc1NC(=O)CC1C(=O)Nc2nc3ccccc3n21 (centres undefined) |  | inactive: -1.02%
55 | Cc1ccc(NC(=O)c2ccc3c(c2)N(S(C)(=O)=O)CC3)cc1 | inconclusive: 28.2 µM [inhibitor, single point] | 
56 | COc1cc(C(=O)NC(=S)NNC(=O)[C@H]2C[C@@H]2c2ccccc2)cc(OC)c1OC | inconclusive: 39.8 µM [inhibitor, single point] | 
57 | O=c1ccc(-c2cc(-c3cccc4cn[nH]c34)cn3cncc23)c[nH]1 | inconclusive: 22.4 µM [inhibitor, partial curve, poor fit] | 
58 | CCN1CCN(CCNC(=O)c2nnn3cc(-c4ccccc4)[nH]c(=O)c23)CC1 | active: 28.2 µM | 
59 | COc1ncccc1C(=O)N1CCc2onc(-c3cccc4ccccc34)c2C1 | inconclusive: 35.5 µM [inhibitor, partial curve, poor fit] | 
60 | O=C(NCc1cccn1Cc1ccc(F)cc1)NC12CC3CC(CC(C3)C1)C2 |  | inactive: 7.49%
61 | Cc1ccc(NC(=O)c2cc(=O)c3ccc(C)c(C)c3o2)cc1Cl |  | inactive: 3.16%
62 | O=S(=O)(c1ccccc1)c1nc(-c2cccs2)oc1SCc1ccccc1F | inconclusive: 28.2 µM [inhibitor, single point] | 
63 | Cc1ccc(C(=O)N2CC(N(C)c3ccccc3C)C2)cc1 |  | inactive: 0.695% [at 86.2 µM]
64 | CN(C(=O)Cn1cc(C#N)c2ccccc21)C1CCCCC1 |  | inactive: 0.129%
65 | Cc1ccc(C(=O)Nc2nc3ccc(Cl)cc3s2)o1 | inconclusive: 31.6 µM [inhibitor, partial curve, poor fit] | 
66 | COc1cc(SC)ccc1C(=O)N[C@H]1CCN2C(=O)N(c3ccc(F)c(Cl)c3)C(=O)[C@@H]2C1 | inconclusive: 25.1 µM [inhibitor, single point] | 
67 | Cc1cc(C)c2c(N)c(C#N)sc2n1 | inconclusive: 31.6 µM [inhibitor, partial curve, poor fit] | 
68 | CCn1c(Cn2nnc(-c3cccc(F)c3)n2)nc2cc(S(=O)(=O)N3CCCCC3)ccc21 |  | inactive: -10.2%
69 | COc1ccc(NC(=O)CSc2nc(N3CCOCC3)c3c(c2C#N)CC(C)(C)OC3)cc1 |  | inactive: 20.5%
